# Reference: PubChem BioAssay AID488969 (Vanderbilt High Throughput Screening Facility, 2010)
# In all, about 110,000 compounds were measured (“z-score”: median about -0.1, highest 2% from about 2 on). This is one part of the list.
# Target: Metabotropic glutamate receptor 8 (Rattus norvegicus) (UniProt P70579)
# Experiment: mGluR8 Gi/Go-coupled signaling modulation – cell-based, rat, thallium flux, HTS, primary screen (AID 488969)
# Conditions: HEK293 rat mGluR8, GIRK (G protein-gated inwardly rectifying potassium channel) thallium flux, FluoZin2; at 10 µM; stronger effect = higher value
# Chain of UniProt P70579 (P70579 whole entry, looked up): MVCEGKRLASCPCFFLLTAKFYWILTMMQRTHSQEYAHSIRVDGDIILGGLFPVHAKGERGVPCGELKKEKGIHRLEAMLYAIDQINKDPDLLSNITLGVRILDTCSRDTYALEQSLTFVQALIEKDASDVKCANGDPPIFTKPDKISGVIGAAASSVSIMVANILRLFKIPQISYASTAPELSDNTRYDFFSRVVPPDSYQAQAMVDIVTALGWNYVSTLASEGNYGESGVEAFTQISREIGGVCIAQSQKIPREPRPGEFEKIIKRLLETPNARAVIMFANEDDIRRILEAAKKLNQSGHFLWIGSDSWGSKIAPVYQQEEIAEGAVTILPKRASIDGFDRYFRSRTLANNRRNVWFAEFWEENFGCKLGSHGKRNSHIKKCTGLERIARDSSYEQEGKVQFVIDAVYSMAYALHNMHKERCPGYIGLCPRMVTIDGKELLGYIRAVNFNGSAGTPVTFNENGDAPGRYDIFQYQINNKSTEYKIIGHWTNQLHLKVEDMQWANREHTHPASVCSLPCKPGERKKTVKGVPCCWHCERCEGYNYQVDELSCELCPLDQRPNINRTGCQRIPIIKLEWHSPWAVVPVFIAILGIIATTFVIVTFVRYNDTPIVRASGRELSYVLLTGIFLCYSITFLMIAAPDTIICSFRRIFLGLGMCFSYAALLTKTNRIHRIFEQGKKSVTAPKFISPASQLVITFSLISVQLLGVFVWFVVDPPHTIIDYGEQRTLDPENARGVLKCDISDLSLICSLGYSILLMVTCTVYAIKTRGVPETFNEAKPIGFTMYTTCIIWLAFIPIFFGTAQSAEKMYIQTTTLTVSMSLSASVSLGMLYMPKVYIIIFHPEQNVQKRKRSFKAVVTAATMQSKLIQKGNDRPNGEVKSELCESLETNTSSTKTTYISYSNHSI
row,Structure (SMILES),z-score
1,Cc1ccccc1C1=NCC(=O)N(CC(=O)NCc2ccco2)c2sc3c(c21)CCCC3,-1.01
2,CC(C)(C)P(=O)(c1ccncc1)N1CCCC1 (stereo not drawn),0.609
3,CN1c2ccccc2Oc2ccccc21,0.102
4,CSc1ncc(/C=C2/C(=O)NC(=O)N(C)C2=O)cn1,-0.494
5,COc1cccc(-n2c(CN3CCN(C)CC3)nc3ccc([N+](=O)[O-])cc3c2=O)c1,0.000822
6,O=P(NCc1ccccc1)(Oc1ccccc1)Oc1ccccc1,0.167
7,CN1CCN(Cc2nc3ccccc3c(=O)[nH]2)CC1,0.227
8,CC1(C)COC(Nc2cccc(Cl)c2)=N1,-0.099
9,Cc1ccc(-c2nc3ccccc3c(=O)n2-c2ccccn2)cc1,0.803
10,Cc1c(N=Cc2c(O)n(Cc3ccc(F)cc3)c(=O)[nH]c2=O)c(=O)n(-c2ccccc2)n1C,-0.0628
11,COCCOC(=O)c1c(C)n(C)c2ccc(OC(=O)N(C)C)cc12,-0.166
12,CN1C(=O)C(C2(C#N)CCCCC2)C(=O)N(C)C1=O,0.28
13,CCC(=NCCCN(C)C)c1c(O)n(-c2ccc(OC)cc2)c(=O)[nH]c1=O,-0.142
14,O=c1[nH]c(=O)n(Cc2ccco2)c(O)c1/C=N/N1CCCCCC1,-0.29
15,Cc1sc2nc(COC(=O)Cc3ccccc3)[nH]c(=O)c2c1C,-0.211
16,Cc1ccccc1-n1c(O)c(C=NCCN2CCOCC2)c(=O)[nH]c1=O,0.0309
17,Cc1cccc(-n2c(-c3cccs3)nc3ccccc3c2=O)c1,0.057
18,Cn1c(O)c(C(c2ccccn2)c2c(O)n(C)c(=S)n(C)c2=O)c(=O)n(C)c1=S,-0.286
19,CCCCCCn1c(O)c(C(C)=NC)c(=O)[nH]c1=O,0.0549
20,CCC(=O)Nc1ccc(N2CCN(CC)CC2)c(Cl)c1,-0.0635
21,CC(=O)N1CCN(c2ccc([N+](=O)[O-])cc2C=C2C(=O)NC(=O)NC2=O)CC1,-0.975
22,CCn1cc(C(=O)c2cccs2)c2ccccc21,-1.08
23,Fc1ccc(CNCCc2ccccc2F)cc1,0.667
24,CCN1CCN(S(=O)(=O)c2cnc(Cl)c(Br)c2)CC1,0.452
25,Cc1ccc(N2C(=O)NC(=O)/C(=C\c3ccc(N4CCOCC4)cc3)C2=O)cc1,-0.0394

row,Structure (SMILES),z-score
1,O=c1[nH]c(=O)n(Cc2ccccc2)c(O)c1C=NCCN1CCNCC1,0.607
2,Cc1cc(Cl)ccc1OCCCC(=O)NCc1cccs1,1.35
3,CCC(=NCc1cc(OC)cc(OC)c1)c1c(O)n(C)c(=O)n(C)c1=O,-0.377
4,O=C(NC(=C(Cl)Cl)P(=O)(c1ccccc1)c1ccccc1)c1ccccc1,-0.29
5,CC1CCCN(C(=O)CCl)C1 (stereo not drawn),-0.18
6,CCOC(=O)C(O)(c1ccc(NC(=O)Oc2ccccc2)cc1)C(F)(F)F (stereo not drawn),0.272
7,CC(=O)NC(C)Cc1ccccc1 (stereo not drawn),0.13
8,O=C(O)c1ccc(Cl)nc1,-0.197
9,O=c1[nH]c(=O)n(Cc2ccco2)c(O)c1/C=N/N1CCCCC1,-0.142
10,COc1ccc(N2C(=O)NC(=O)C(CCc3ccncc3)(CCc3ccncc3)C2=O)cc1,-0.651
11,COc1ccc(NC(=O)c2c(C)nn(Cc3ccccc3Cl)c2Cl)cc1Cl,0.0244
12,CC1CCC(NCC(O)c2ccccc2)CC1 (stereo not drawn),0.108
13,CC[n+]1c(/C=C/N(C)c2ccccc2)sc2ccc(Cl)cc21,0.47
14,CC(Cc1ccccc1)NC(=O)/C=C/c1ccc(Cl)cc1 (stereo not drawn),-0.151
15,Cc1nc2nc(SCC(=O)N3CCC4(CC3)OCCO4)nn2c(C)c1Cc1ccccc1,-0.882
16,CN(C=O)CP(=O)(O)CN(C)C=O,0.0217
17,CCN1CCN(C(=O)COc2ccc(S(=O)(=O)N(C)Cc3ccccc3)cc2)CC1,0.0709
18,O=C1NC(=O)N(Cc2ccccc2)C(=O)/C1=C/N1CCCc2ccccc21,-0.761
19,CC(=O)c1c(C)n(C(C)C)c2ccc(O)cc12,-0.0157
20,Cn1c(O)c(C=NC2CC(C)(C)NC(C)(C)C2)c(=O)n(C)c1=O,-0.112
21,Cc1sc2c(c1C)C(c1ccc(C(C)(C)C)cc1)=NCC(=O)N2CC(=O)Nc1nccs1,-1.06
22,CN1C(=O)C(=Cc2ccccc2OCc2ccc(Cl)cc2)C(=O)N(C)C1=O,-0.415
23,CC1=NN(c2ccccc2)C(=O)C1/C=C1/C(=O)NC(=O)N(c2cccc(C)c2)C1=O (stereo not drawn),-0.395
24,CN(C)S(=O)(=O)c1cc(NC(=O)C[N+]23CCN(CC2)CC3)ccc1Cl,-0.0344
25,CN1CCN(c2ccc([N+](=O)[O-])c(N/N=C3\CN4CCC3CC4)c2)CC1,-0.0741

row,Structure (SMILES),z-score
1,Cc1cc(C)n2nc(C)[n+](C)c2n1,-0.472
2,CCN(CC)CCCN=Cc1c(O)n(-c2cccc(C)c2C)c(=O)[nH]c1=O,0.0751
3,Cc1occc1C(=O)N1CCC2(CC1)OCCO2,-0.343
4,O=C1C2CCCN2C(c2cccs2)N1c1ccccn1 (stereo not drawn),0.469
5,Cc1cc([P+](=O)O)c(C)n1-c1ccc(Br)cc1,0.727
6,CCOc1cccc(CNC2CN3CCC2CC3)c1 (stereo not drawn),0.201
7,COC(=NC1CCCC1)C(O)c1c[nH]c2ccccc12 (stereo not drawn),-0.179
8,CCC(CC)C1C(C#N)=C(N)Oc2c1c(=O)oc1ccccc21 (stereo not drawn),-0.103
9,Cc1ccc(/C=C2/C(=O)NC(=O)N(CC3CCCO3)C2=O)s1 (stereo not drawn),-0.582
10,Cc1cc(OCc2ccc([N+](=O)[O-])cc2)c2c3c(c(=O)oc2c1)CCCC3,-0.103
11,Clc1ccccc1CN1CCN(c2ccccc2Cl)CC1,0.841
12,N/C(=N\[N+](=O)[O-])N/N=C/c1ccc(O)cc1,-0.249
13,CC1N(O)C2CCCCCC2N1O (stereo not drawn),-0.06
14,c1ccc(CNCCc2ccc3c(c2)OCO3)nc1,-0.496
15,CCC(C)C1N=C(c2ccccc2)c2cc(Cl)ccc2N(CC(=O)NCc2ccco2)C1=O (stereo not drawn),-0.0258
16,NCC(CC(=O)O)c1ccc(Cl)cc1 (stereo not drawn),-0.308
17,CCOc1ccc(Br)c(C2(O)CC(C)N(C)CC2C)c1 (stereo not drawn),2.44
18,Cc1nnc(SCc2nc3ccccc3c(=O)n2-c2ccccc2Cl)n1N,0.0121
19,CC1(C)CC(=O)C=C(NCCN2CCN(C(=O)Cc3ccc(Cl)cc3)CC2)C1,0.295
20,COc1ccc(CN2CCCCC2c2cccnc2)cc1C (stereo not drawn),0.361
21,COCCOC(=O)C1=C(N)OC(C)=C(C(=O)OC)C12C(=O)Nc1ccccc12 (stereo not drawn),0.0698
22,CC1=NN(c2ccccc2)C(=O)C1/C=C1\C(=O)NC(=O)N(c2cc(C)cc(C)c2)C1=O (stereo not drawn),-0.0364
23,COc1ccc(C)cc1NC(=O)c1c(C)nn(Cc2ccccc2)c1Cl,-0.162
